Source: PubChem BioAssay AID1508624 (National Center for Advancing Translational Sciences (NCATS), 2021)
The campaign covered roughly 48,000 compounds. About 120 (0.25%) were called active. Another 4% or so got no clear call; they are omitted. Calls come from the whole dose curve; as a rule, active = well fitted activation curve with a large enough effect; inconclusive = small, poorly fitted or top-dose-only effect, or another doubt; inactive = no such curve, though single readings can be large or run the other way. This is one part of the list.

Assay: Primary qHTS for Identification of Small Molecule Activators of Huntingtin-Antisense Promoter Activity; note: nearly all actives have a fitted effect of over 55% in size
Conditions: HEK293 HTT-AS promoter firefly luciferase reporter, 24 h; series mostly up to 57.5 µM; activity change, positive = activation: at the top concentration
In short: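 Luminescence was read after Dual-Glo reagent and a 10 min room-temperature incubation. Values were normalized to vehicle (0% activity) and zero RLU (-100% activity). Reporter HEK293 cells had been exposed to compounds (up to 57.5 uM final) for 24 h.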

Activity change, positive = activation, inactive:
CCCCCCCCCCCCCCCCCCOCC(O)CO (centres undefined) 2.6%, Cc1ccc(NC(=O)CSc2cn(CC(=O)N3CCCCCC3)c3ccccc23)cc1 0%, CN1Cc2cc(C(=O)N3CCC(C4CCNCC4)CC3)ccc2NC(CC(=O)O)C1=O (centres undefined) -3.42%, Cc1cccc(N2CCN(C(=O)c3cnn(-c4cccc(Cl)c4C)c3C3CCNCC3)CC2)c1C -18%, Cc1ccc(-c2noc(CSc3nnc(Cc4ccccc4)n3-c3cccc(C)c3)n2)cc1 -37.1%, O=C(NCC(c1cccnc1)N1CCc2ccccc2C1)C(=O)Nc1ccc(Cl)cc1 (centres undefined) -31.8%, Cc1cc(C)c(NC(=O)Cn2c(=O)n(Cc3ccco3)c(=O)c3ccc(C(=O)NC4CCCC4)cc32)c(C)c1 -6.75%, Cn1nnc2c(NCCc3ccccc3)ncnc21 20.7%, CC(C)c1ccc(NC(=O)c2cccc3c2C(=O)N(C2CCCCC2)C3)cc1 -6.14%, CCCc1nc2ccccc2n2c(-c3ccc(C)cc3)c3c(=O)n(C)c(=O)n(C)c3c12 0.718%, Cc1ccc2c(c1)N(CC(=O)NCc1ccccc1Br)C(=O)c1cccnc1O2 -17.9%, CC(=O)c1cccc(NC(=O)c2c(N3CCCC3=O)c3cc(F)ccc3n2C)c1 -18.1%, CCOCCCNC(=O)C(c1ccc(C)cc1)N(Cc1cccs1)C(=O)c1ccc(NC(C)=O)cc1 (centres undefined) -12.9%, C[N+](C)(CCOc1ccccc1)Cc1cccs1 -7.49%, C[N+]1(C)CCC(OC(=O)C(O)(c2ccccc2)C2CCCC2)C1 (centres undefined) -0.607%, CCSc1ncc(Cl)c(C(=O)Nc2c(C(=O)c3ccc(C)c(F)c3)oc3ccccc23)n1 12.8%, COc1ccccc1NC(=O)c1c(NC(=O)c2ccco2)sc2c1CCC(C(C)(C)C)C2 (centres undefined) -4.38%, CCN(CC)C(=O)c1sc2c(c1C)c(=O)n(Cc1ccccc1)c(=O)n2Cc1ccc(Cl)cc1 -36.1%, O=C(CCS(=O)(=O)c1nc(-c2ccc3c(c2)OCO3)cc(C(F)(F)F)n1)Nc1ccccc1F 16.3%, CCN(C(=O)CCn1cnc2onc(-c3ccc(F)cc3)c2c1=O)c1ccc(OC)cc1 -28%, COc1ccc(Nc2nc3ccccc3c3nnc(C)n23)cc1Cl -2.54%, CCc1cccc(-n2nnc(-c3nc(-c4ccccc4Cl)no3)c2N)c1 -1.95%, CCCC(=O)Nc1nnc2n1CCS2 -8.61%, O=C(CSc1nc2c(c(=O)[nH]1)CN(Cc1ccc3c(c1)OCO3)CC2)Nc1cccc(Cl)c1 0%, Cn1nnc2c(NCc3ccccc3Cl)ncnc21 12.1%, CCOC(=O)c1noc2ncnc(N3CCC(C)CC3)c12 1.96%, CCOc1ccc(Oc2nc(NC)nc(N3CCOCC3)n2)nn1 -7.61%, Cc1cccc(Cn2cc3c(=O)n(CC(=O)Nc4ccc(C)c(F)c4)nc-3c3cc(F)ccc32)c1 -9.26%, COc1ccc(CC(=O)NCc2nc3cccnc3n2Cc2ccc(C)cc2)cc1OC -20.5%, COc1ccc(N2CC(NC(=O)c3cc4ccccc4o3)CC2=O)cc1OC (centres undefined) -27.6%, CCc1cccc(NS(=O)(=O)c2c(C)nc3sc(CC)nn3c2=O)c1 -21.3%, COc1cc(/C=C(\C#N)C(=O)Nc2ccc(C)cc2)ccc1OCc1cc(=O)n2nc(C)sc2n1 -11.8%, Cc1ccc(NC(=O)Cn2c(=O)n(CCc3ccccc3)c(=O)c3c4c(sc32)CCCC4)c(C)c1 -8.12%, O=c1oc2ccc(Br)cc2cc1-c1csc(-c2ccccc2)n1 11.1%, CCOC(=O)c1cc(NC(=O)c2ccc(C)cc2)c(=O)n2c1oc1ccc(Cl)cc12 -11.8%, Cc1ccc(N2CC(NC(=O)c3ccc(S(=O)(=O)N4CCCCC4)cc3)CC2=O)cc1 (centres undefined) -22.2%, COC(=O)c1ccc(NC(=O)c2cc(=O)c3ccc(C)cc3o2)cc1 5.7% [at 11.5 µM, percent change from vehicle, -100% = no light], C=C1C[C@@]2(O)O[C@@]3(C[C@H]2C(C)C)[C@H](C)CC[C@H]13 -5.93%, CN(C(=O)C1=CC(c2ccc3c(c2)OCO3)=NS(=O)(=O)N1C)c1ccccc1 -12.4%, CC(C)COc1ccc(C(=O)N(Cc2ccc(N(C)C)cc2)Cc2ccco2)cc1 -30.4%, CCc1ccc(NC(=O)CCS(=O)(=O)c2ccc3c(c2)n(C)c(=O)c(=O)n3C)cc1 -16.7%, Cc1ccc(/C=C/c2nc3ccccc3[nH]2)cc1 -71.5%, CC1CCCCN1c1nnc(NC(=O)Nc2ccccc2F)s1 (centres undefined) -16.9%, CCC(Cn1nnc2ccccc2c1=O)NC(=O)Nc1ccc(C)c(C)c1 (centres undefined) -4.6%, COCCCNC(=O)CSc1nc2cc(OC)c(OC)cc2c2nc(-c3ccccc3)nn12 1.11%, CS(=O)(=O)CCC(C(=O)Nc1cccc(C(F)(F)F)c1)N1Cc2ccccc2C1=O (centres undefined) -14%, Cc1ccc(OCc2nc3ccccc3n2CCOc2ccc(Cl)cc2)cc1 -24.4%, CC1CCCN(C(=O)c2cc3c(Cl)nc4ccccc4c3s2)C1 (centres undefined) 15.6%, O=C(c1ccco1)c1cn(CCOc2ccc(F)cc2)c2ccccc12 -11.1%, Cc1ccc(-c2nc(SCC(=O)NCc3ccco3)c3c(=O)n(C)c(=O)n(C)c3n2)cc1 -1.8%, CC(C)c1ccc(NC(=O)Cn2c(=O)n(CCc3ccccc3)c(=O)c3ccccc32)cc1 -10.7%, CCc1cccc(CC)c1NC(=O)CN1C(=O)C(=O)c2ccccc21 -14.8%, Cc1ccc(Nc2nnc(-c3ccc(C)c(S(=O)(=O)NCc4nc5ccccc5[nH]4)c3)c3ccccc23)cc1 2.2% [at 11.5 µM, percent change from vehicle, -100% = no light], Cc1c(Cn2ccnc2)c2ccccc2n1CCC(=O)O 5.29%, Cc1ccccc1OCC(O)Cn1c(=N)n(CCN2CCCCC2)c2ccccc21 (centres undefined) -29%, Cc1ccc(-c2nnc(Nc3cccc(O)c3)c3ccccc23)cc1S(=O)(=O)N1CCN(C)CC1 11.1% [at 11.5 µM, percent change from vehicle, -100% = no light], Cc1ccc(Cn2c(=O)n(CCCC(=O)NCc3ccccc3Cl)c(=O)c3ccccc32)cc1 -5.86%, COc1ccc(OC)c(NC(=O)c2c(NCc3cccs3)sc3c2CCCC3)c1 -17%, COC(=O)c1cnc(N2CCN(c3ccccc3F)CC2)c2ccccc12 1.78%
